First the molecules themselves.
B1: LINE1-mini (parent)
chain: GGCAGAGCUCAACACAGCGUGGCAAAGUGGCUGUGGCUAGACUGCC

Read counts are not given, so values of variants with three or more changes are uncertain.

In the series the parent is B1. Nature of the series: self-cleavage, relative activity (ratio to wild type); higher = more cleavage; in vitro, sequencing; the parent is a self-cleaving ribozyme.
Consider GGCAGAGCUCAGCACAGCGAGGCAAAGUGGCAGUGGCUAGACUGCC, for which the self-cleavage was 0.02.
Consider GGCAGAGCUCAGCACAGCGUGGCAGAGUGGCUGUGGCUAAACUGCC, for which the self-cleavage came to 0.01.
Regarding GGCAGAGCUCAGCACAGCGUGGCAAAGUGGCUGUGGCUAGACUUAC, the self-cleavage was determined as 0.
As to GGCAGAGCUCAUCACAGUGUGGCAAAGUGGCUGAGGCUAGACAGCC, the self-cleavage turned out to be 0.05.
The figure for GGCAGAGCUCAGCAUAGCGUGGCUAAGUGGCUGUUGCUAGACUGCC is 0.04; for GGCAGAGCUCAGCACAGCGUGGUAAAGUCGCUGUGGCUAGACUGCC it is 0.03.
On to GGCAGAGCUCAGCAAAGCGUGGUAAAGUUGCUGUGGCUAGACUGCC, for which the self-cleavage is 0.02.
In the case of GGCAGAGCUCAGCACAGCGUGGCAAAGUGUCUAUGGCUAGAGUGCU, the self-cleavage is 0.05.
To GGCAGAGCUCAGCACAGCGUGGCAAAGUGGCUGUGUCUAAACUGCC belongs 0.06; to GGCAGAGCUCAGCACAGCGUGGCAAAGUGGUUGAGGCUAGACUGCU, 0.02; to GGCAGAGCUCAUCCCAGCGUGGCAAAGUGGCUGUGGCUAUACUGCC, 0.03.
Turning to GGCAGAGCUCAGCACAGGGUGGGAAAGUGGCUCUGGCUAGACUGCC, the self-cleavage was found to be 0.05.
Turning to GGCAGAGCUCAGCAAACCGUGGCAAAGUGGCUGUGGCGAGACUGCC, the self-cleavage stood at 0.
On to GGCAGAGCUCAUUACAGCGUGGCAAAGUGACUGUGGCUAGACUGUC, for which the self-cleavage is 0.06.
As to GGCAGAGCUCAGCACAGCGUGGCAAUGUGGGUGUGGCUAGACUGCC, the self-cleavage is 0.13.
As to GGCAGAGCUCAUCACAGCGUGGCAGAGUGACUGUGGCUAGACUGCC, the self-cleavage turned out to be 0.16.
In the case of GGCAGAGCUCAGCACAGCGUGGCAAAGUCGCUGUGACUACACUGCC, the self-cleavage amounted to 0.01.
For the variant GGCAGAGCUCAUCAAUGCUUGGCAAAGUGGCUGUGGCUAGACUCCC, the self-cleavage amounted to 0.04.
Turning to GGCAGAGCUCAGCACAGCGAGGCAAAGUGGCUGUGGCUUGACUGCC, the self-cleavage turned out to be 0.04.
To GGCAGAGCUCAUCGCAGCGUGGCAAAGUGGCUGUGGCUAGACAUCC belongs 0; to GGCAGAGCUCAGCACACCGGGGCAAUGUGGCUGUGGCUAGACUGCC, 0.01.
For GGCAGAGCUCAGUACAGCGUGGCAAAGUGACUGUGUCUAGACUGCC, the self-cleavage stood at 0.02.
Regarding GGCAGAGCUCAUCAAAGCUUGGCAAAGUGGCUGUAGCUAGACUGCC, the self-cleavage was determined as 0.02.
GGCAGAGCUCAGCACAGCCUGUCAAAAUCGCUGUGGCUAGACUGCC: the self-cleavage was 0.
On to GGCAGAGCUCAGCACAGCGUGGCAAAGUUGUUGUGGCUAGACUGCC, for which the self-cleavage was 0.
As to GGCAGAGCUCAGCACAGCGCGGCAAAUUGGCUGUGGCUUGACUGCC, the self-cleavage came to 0.02.
To GGCAGAGCUCAGCACAGCGUGGCAAACUGGCUGUGGCUAGAUUGCC belongs 0.07.
As for GGCAGAGCUCAGCACAGCAUGGCAAAGUGGCUGUGACUAGACUGGC, the self-cleavage came out at 0.02.
With GGCAGAGCUCAUCACAGUGUGGCAACCCGCCUGUGGCUAGACAGCC, the self-cleavage is 0.29.
Turning to GGCAGAGCUCAGCACAGCAUGGCAAAGUGGAUGUGGCUAGACAGCC, the self-cleavage is 0.01.
For GGCAGAGCUCAGCACAGCGUGGCAGAGUCGCUGUGGCUAGACUGCU, the self-cleavage was 0.
Consider GGCAGAGCUCAGCACAGCGUGGUAAUGUUGAUGUGGCGAGACUGCC, for which the self-cleavage amounted to 0.
Regarding GGCAGAGCUCAGCACAGCGUGGCAAAGUGUCUGUGGCUAGUCUGCC, the self-cleavage amounted to 0.02.
On to GGCAGAGCUCAGUAAAGCGUGGCAAAGUGGCUGUGGCUAGACUGCC, for which the self-cleavage was 0.02.
To GGCAGAGCUCAGCACAGCGUGGCAAAGUGGUUGUGGCUUGACUACC belongs 0.16.
The figure for GGCAGAGCUCAGCACAGCGUUACAAAGUGGCCGCGGCUAGACCGCC is 0.07; for GGCAGAGCUCAGCACAGCGUGGCAAAGUGGCUGUGGGUAGUCUGCC it is 0.15; for GGCAGAGCUCAUCGCACCGUGGCAAAGUGGCUGUGGCUAGACAGCC it is 0.1.
Take GGCAGAGCUCAUCGCACCGUGGCAAAGUGGUUGUGGAUAGACUGCC: the self-cleavage amounted to 0.01.
Regarding GGCAGAGCUCAGCACAGCGUGGCAAGGAGCCAGUGGCUAGACUGCC, the self-cleavage was determined as 0.
With GGCAGAGCUCAGCACAGCGUGGCAAAGUGGCUGUGGCUAUACUGCU, the self-cleavage came out at 0.02.
Turning to GGCAGAGCUCAUCAAAGCGUACCAAAGUGGCUGUGGCUAGACUGCC, the self-cleavage worked out at 0.06.
For GGCAGAGCUCAGCACAGCGUGGUAAAGUGGAUGUGGCUAGACUGCC, the self-cleavage was determined as 0.02.
Turning to GGCAGAGCUCAGCACAGCGUUACAAAGUAGCUGUGGCUAGACUGCA, the self-cleavage was determined as 0.05.
In the case of GGCAGAGCUCAUAACACCGUGGCAAAGUGGCUGUAGCUAGACUGCC, the self-cleavage came to 0.04.
As for GGCAGAGCUCAGGACAGCGUGGCAAAGUGGCUGUGGGUAGACUGCC, the self-cleavage amounted to 0.
In the case of GGCAGAGCUCAGCAUAGCGUCGCAAAGUGGCUGUGGCUAGACUGCC, the self-cleavage was 0.04.
The figure for GGCAGAGCUCAUAACAGCGUCGCAAAGCGCCUGUGGCUAGACUGCC is 0.06; for GGCAGAGCUCAGCACAGCGUGGUAAAGUGGCUGUGGCUAGACUGCA it is 0.01.
On to GGCAGAGCUCAUCUCAGCGUGGCCAAGUCGCUGUGGCUAGACAGCC, for which the self-cleavage was found to be 0.04.
For the variant GGCAGAGCUCAUCACAGCGUGGCAACGUGCCUGUGGCUAGACUGCC, the self-cleavage worked out at 0.2.
As for GGCAGAGCUCAGCACAGCGUGGCAAAUUGGCUUUGGCUGGACUGCC, the self-cleavage was found to be 0.11.
The figure for GGCAGAGCUCAUCACAGUGUGGCAAAGGGGCUGUGGCUACACUGCC is 0; for GGCAGAGCUCAGCACAGCGCGGCAAAGUGGCUGUGGGUAGACUGCC it is 0.01.
As for GGCAGAGCUCAGCACAGCGUGGCAAGGUGGCUGGGGUUAGACUGCC, the self-cleavage was 0.02.
On to GGCAGAGCUCAGCACAGCGUGGCAAAGAGGCCGUGGCUAGACUGCC, for which the self-cleavage was determined as 0.08.
As to GGCAGAGCUCAGCACAUCGUGGCAAAGUGGCUGUGGCUAGUCUGCC, the self-cleavage was found to be 0.02.
For the variant GGCAGAGCUCAGCAAGGCGUGGCAAAGUGGCUGUGGCUAGACUGCC, the self-cleavage stood at 0.08.
Turning to GGCAGAGCUCAGCACAGCGUGCCAAAGUGGCUGUGGCUAGACUGCG, the self-cleavage came to 0.07.
GGCAGAGCUCAGCACAGCGUGGCAAAGUGGCUUUAGCUAGACUGCC: the self-cleavage was 0.06.
As to GGCAGAGCUCAGCACAGCGUGGCAAAGUCGCUGUGGCCAGACUGCC, the self-cleavage came out at 0.
The figure for GGCAGAGCUCAGCACAGCGUGGCAAAGCGGCAGUGCCGAGACUGCC is 0; for GGCAGAGCUCAGCACAGCGUGGCAAAGUGGCUGUGGCUACUCUGCC it is 0.02.
As to GGCAGAGCUCAGCACAGCGUCGGAAAGUGGCUGUGGCUAGACUGCC, the self-cleavage amounted to 0.01.
The figure for GGCAGAGCUCAGCACAGCGUGGCAAAGUGGCAGUGGUUAGACUGCC is 0.15.
In the case of GGCAGAGCUCAGCACAGCGUUGCAAAGUGUCUGUGGCUAGACUGCC, the self-cleavage was 0.03.
To GGCAGAGCUCAGCACAGCGUGGCAAAGUGGCUGUGGAUGGACUGCA belongs 0.05; to GGCAGAGCUCAGCACAGCGUGGCAAAGUGGCUGUGUCUAGGCUGCU, 0.09; to GGCAGAGCUCAGCACAGCUUGGCAAAGUGGGUCUGGUUAGACUGCC, 0.01.
The figure for GGCAGAGCUCAGCACACCGUGGCAAAGUGGUUGUGGCUAGACUGCC is 0.03; for GGCAGAGCUCAUCAAAGCGUAGCAAAGUGGCUGUGGCUAGACUGCC it is 0.05.
Take GGCAGAGCUCAUCACAGUGGGGCAAAGUGGCCGUGGCUAGACUGCC: the self-cleavage was 0.02.
To GGCAGAGCUCAGCACAGAGUGGCAAAGUGGCUGUAGCUAGUCUGAC belongs 0; to GGCAGAGCUCAGCACAGCGUGGCAAAGUCGCUGUGGCUAAACUGCC, 0.03; to GGCAGAGCUCAUCACGGCGUAGCAAAGUGGCUGUGGCUAGACUGCC, 0.1.
GGCAGAGCUCAGCACAGCGCGGCAAAGAGGCUGUGGCUAGACUGCC: the self-cleavage was 0.06.
GGCAGAGCUCAUCUCAGCUUCGCAAAGUGGCGGUGGCUAGACUGGC: the self-cleavage came out at 0.
To GGCAGAGCUCAGUACAGCCCAGUAAAGUGACUGUGGCUAGACUGCC belongs 0.01; to GGCAGAGCUCAUCACAGUGUGGGAAAGUGGCUGUGGCUAGACUGCC, 0.09; to GGCAGAGCUCAGCACAGCUUGGCAUAGUAGCUGUGGCUAGACUGCC, 0.01.
To GGCAGAGCUCAGCAUAGCUUGGCAAACUGGCGGUGGCUAGACUGCC belongs 0.01; to GGCAGAGCUCAGCACAUCGUGGCAACGUGGCUGUGGCUAGACUGCC, 0.04.
For the variant GGCAGAGCUCAUGACAGUGUGGCAUAGUGGCUGUGGCUAGACUGCC, the self-cleavage came to 0.06.
As for GGCAGAGCUCAUAACAACGUGGCAAAGUGGCUGUGGCUAGAGUGCC, the self-cleavage was 0.05.
To GGCAGAGCUCAGCACAGCGUGGCAGAGUGGCGGUGGCUAGACUGCC belongs 0.02.
GGCAGAGCUCAGCACAGCGUGACAAAUUGGCUGUGGCUAGACUCCC: the self-cleavage amounted to 0.05.
Take GGCAGAGCUCAGCACAACGUGGCAAAGUGGCUGUGGCUAGAGUGCC: the self-cleavage is 0.04.
Take GGCAGAGCUCAGCACAGCGUGGCAAAUUGGCUGUGGCUAGAAUGCC: the self-cleavage stood at 0.01.
Take GGCAGAGCUCAUCACAGGGUGGCAAAGUGGCUGCGGCUAGACUGCA: the self-cleavage was determined as 0.02.
Consider GGCAGAGCUCAGCACACCGUGGCAAAGUGGCUGUGGUUAGUCUGCC, for which the self-cleavage came to 0.
As for GGCAGAGCUCAUUACAGCGUGGCAAAGUGGUUGUGGCUGGACUGCC, the self-cleavage is 0.07.
For GGCAGAGCUCAGCACAGCGUGGCAAAGUGGCUGUGGCCAGAAGGCC, the self-cleavage worked out at 0.14.
Take GGCAGAGCUCAGCAGCGCGUGGUAAAGUGGCUGUGGCUAGACUGCC: the self-cleavage was 0.03.
With GGCAGAGCUCAGUACAGCGUGGCAAAGUGGACGUGGCAAGACUGUC, the self-cleavage was found to be 0.
Consider GGCAGAGCUCAGCACAUCGUGGCAAAGUGGCUGUCGCUGGACUGCC, for which the self-cleavage was determined as 0.01.
The figure for GGCAGAGCUCAUCAGAGCGUGGCAAAGUGACUGUGGCUAGACUGCC is 0.04; for GGCAGAGCUCAUAACAGCGUGGCAAAGGGGCUGUGGCUAGACUGCC it is 0.06; for GGCAGAGCUCAGCACAGCGUAGCAAAGUGGCUAUGGCUAGACUGCC it is 0.14.
As to GGCAGAGCUCAGCACAGCGUGGAAAAUUGGCUGUGGCCACACUGCC, the self-cleavage turned out to be 0.01.
In the case of GGCAGAGCUCAUAACAGCGUGGCGAAGUGGCUGUGGCUAUACUGCC, the self-cleavage turned out to be 0.
To GGCAGAGCUCAGCACAGCGUGGCAAAGGUGCUGUGGCUAGACUGAU belongs 0; to GGCAGAGCUCAUCACAGGGUGGCAAAGUGGCUGGGGCUAGUCUGCC, 0.02.
To GGCAGAGCUCAUCAAAGCGUGGCAAAGUGGCUGUGGCUAGAAUGCC belongs 0; to GGCAGAGCUCAGCACAGCGUGGUAAAGUGGCUGUAGCUAGACUGCC, 0.01; to GGCAGAGCUCAGCACAGCGUGGCAAAGUGGCUGAGGCUAGCCUGCC, 0.01.
Take GGCAGAGCUCAGCACAGCGUGGCAAUGUGGGCCUGGCUAGACGGCC: the self-cleavage amounted to 0.02.
On to GGCAGAGCUCAGCACAGCGUGGUAAAGUGGCUGUGUCUAGACUGCC, for which the self-cleavage was determined as 0.
Consider GGCAGAGCUCAUCACAGCGUGGAAAAGUGGGUGUGGCUAGACUGCC, for which the self-cleavage is 0.05.
With GGCAGAGCUCAGGACAGCGUGGCAAAGUGGCUGUGACUAGACUGCC, the self-cleavage came out at 0.
To GGCAGAGCUCAGCACACCGUAGCAAACUGACUGUGGCUAGACUGCC belongs 0.02.
GGCAGAGCUCAGCACAGCGUGGCAAAGUGGCUGCGGCUAGAAUGCC: the self-cleavage came out at 0.02.
Turning to GGCAGAGCUCAUCACCGCGUGGCAAAGUGUCUGUGGCUAGACUUCC, the self-cleavage was found to be 0.

Source of the values: the RNAGym collection of RNA variant scans (doi:10.7554/elife.90254).
